In PubChem BioAssay AID485344 (National Center for Advancing Translational Sciences (NCATS), 2010):
Among all 340,000 compounds or so, about 6,900 (2%) were called active. No stated cut-off is given here; in the data, active means inhibition above about 30%; inactive means below that, where a call was filed. This is a selection; strong and weak results do not stand in their true shares. The source gives no active or inactive call for entries shown without one.
Further: 0% is about no effect.

The compounds below were run against D(2) dopamine receptor (Homo sapiens) (UniProt P14416) (assay: HTS Assay for Allosteric Antagonists of the Human D2 Dopamine Receptor: Primary Screen for Antagonists). Settings: HEK293 TREx D2 cells, calcium flux, dopamine EC80; at 10 µM; stronger effect = higher value.
Chain of UniProt P14416 (P14416 whole entry, looked up): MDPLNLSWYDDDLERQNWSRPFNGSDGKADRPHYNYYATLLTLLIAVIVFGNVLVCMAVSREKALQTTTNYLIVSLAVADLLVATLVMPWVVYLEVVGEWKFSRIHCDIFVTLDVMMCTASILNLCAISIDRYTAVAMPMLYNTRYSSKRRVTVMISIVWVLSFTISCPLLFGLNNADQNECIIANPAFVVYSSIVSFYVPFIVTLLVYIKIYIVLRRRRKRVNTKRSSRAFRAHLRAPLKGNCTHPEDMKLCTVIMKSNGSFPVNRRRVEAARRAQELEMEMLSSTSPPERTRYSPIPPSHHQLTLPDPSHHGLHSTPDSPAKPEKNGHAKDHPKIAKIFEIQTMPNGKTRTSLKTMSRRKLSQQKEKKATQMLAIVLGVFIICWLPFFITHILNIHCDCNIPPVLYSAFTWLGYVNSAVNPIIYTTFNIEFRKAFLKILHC
Outline: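 Measurement of antagonist activity uses fluorescent calcium dye in inducible HEK293 T-REx D2 cells: 10 s baseline, compound addition with 180 s read, EC80 dopamine addition with a further 180 s read.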
`O=C(Cc1ccc(NC(=O)N2CCCCc3ccccc32)cc1)Nc1ccccc1Br` showed an inhibition of -10%. Compound `Cc1ccc(Cl)cc1NC(=O)c1cc(-c2ccc3c(c2)OCCO3)on1` has an inhibition of -19.1%. Compound `Cc1cccc(NC(=O)CN(C)S(=O)(=O)c2cnc[nH]2)c1C` has an inhibition of -4.39%. Compound `Cc1ccccc1CN1c2ccccc2-c2nc(SCC(=O)Nc3cc(F)ccc3F)ncc2S1(=O)=O` has an inhibition of 0.151%. For `Cc1ccc(-n2ncc(C(=O)NCCCN3CCN(C)CC3)c2C2CCN(C(=O)OC(C)(C)C)CC2)cc1`, the inhibition was -5.87%. In the case of `Cc1cc(C)c(NC(=O)CN2C(=O)CCn3nc(-c4cccn4C)cc32)c(C)c1`, the inhibition is reported as -27.9%. In the case of `COc1cc(-c2nc3cccc(C)n3c2Nc2ccc3c(c2)OCCO3)ccc1O`, the inhibition is reported as -12.3%. Work on `CC(=O)c1ccc(N2CCN(c3ncnc4onc(-c5ccc(Cl)cc5)c34)CC2)cc1` yielded an inhibition of 5.11%. `CCCCOC(=O)c1ccc(NC(=O)CSc2nc3c(c(=O)[nH]2)CCC3)cc1` showed an inhibition of 23.5%. With `COC(=O)c1c(-c2ccc(Cl)cc2)noc1N1CCN(c2cccc(OC)c2)CC1` the inhibition was -4.31%. In the case of `COc1ccc(CCNC(=O)c2ccc(Cn3c(=O)c4ccccc4n(Cc4ccccc4Cl)c3=O)cc2)cc1OC`, the inhibition is reported as -4.66%. `Cc1c(C(=O)NCc2ccc(F)cc2)sc2nc(-c3ccccc3)cn12` gave an inhibition of -14.6%. For `CCOc1cc(-c2ccc(OC(=O)c3ccc(Cl)cc3)c(OC)c2)cc(=O)c2c(C)oc(C)c12`, the inhibition was -2.13%. With `Oc1c(C(c2ccc(Cl)cc2)N2CCCC2)sc2nc(-c3ccco3)nn12` (stereo not given) the inhibition was -12.4%. `CCOc1ccccc1C(=O)NCC(c1ccc(N(C)C)cc1)N1CCc2ccccc21` (stereo not given) showed an inhibition of -6.06%. `CN1C(C(=O)NCCc2cccs2)CC2Cn3c(nc4cc(Cl)c(Cl)cc43)C21` (stereo not given) was tested, and the inhibition was active: 47.5%. `COc1cccc(-n2c(SCC(=O)Nc3ccc(F)cc3F)nc3c([nH]c4ccccc43)c2=O)c1` was tested, and the inhibition was -10.4%. `c1csc(-c2nc3ccccn3c2Nc2ccc3c(c2)OCCO3)c1` gave an inhibition of 15.2%. With `CCOC(=O)c1[nH]c2ccccc2c1NC(=O)c1ccc(OCC)cc1` the inhibition was 6.09%. In the case of `CCN1CCN(CCCNC(=O)c2cnn(-c3ccc(C)cc3)c2C2CCN(C(=O)OC(C)(C)C)CC2)CC1`, the inhibition is reported as -0.545%. `CCCCCn1c(=O)[nH]c2cc(C(=O)N3CCN(c4ccccc4F)CC3)ccc2c1=O` gave an inhibition of 2.29%. `CCOC(=O)c1cccc(Nc2nc(C(=O)OCC)nc3ccccc23)c1` showed an inhibition of 0.995%. `CCCOc1ccc(NC(=O)CC2C(=O)N(c3cccc(C)c3)C(=O)N2CCc2ccncc2)cc1` (stereo not given) gave an inhibition of -8.95%. Work on `CCOc1ccc(-c2cc(C(=O)NCc3ccc(OC)cc3)c3c(-c4ccc(F)cc4)[nH]nc3n2)cc1` yielded an inhibition of 8.79%. `Cc1cccc(-c2nc(N3CCN(c4ccc(F)cc4)CC3)c3ccccc3n2)c1` showed an inhibition of -2.48%. `CCOC(=O)c1cccc(NC(=O)c2cc3c(=O)n(Cc4cccnc4)ccc3nc2C)c1` was tested, and the inhibition was -3.92%. With `Cc1cccc(Nc2nc(N)c([N+](=O)[O-])c(N3CCN(C)CC3)n2)c1` the inhibition was active: 55.5%. `CCCCOc1ccccc1NC(=O)Cn1c(-c2cncs2)nc2ccccc21` gave an inhibition of -10.4%. With `O=C(NC1CC(=O)N(c2ccccc2)C1)c1cc2ccccc2o1` (stereo not given) the inhibition was -19.4%. Work on `O=C(Nc1nnc(S(=O)(=O)N2CCCC2)s1)c1ccc(F)cc1` yielded an inhibition of -8.55%. `COc1ccc(OC)c(-n2cnc3cc(C(=O)NC4CCCC4)ccc32)c1` was tested, and the inhibition was -4.62%. Work on `Cc1oc(-c2ccccc2)nc1CNS(=O)(=O)c1ccc(Cl)cc1` yielded an inhibition of 8.49%. `Cc1nc2sccn2c(=O)c1S(=O)(=O)N1CCN(c2ccc(F)cc2)CC1` gave an inhibition of 3.86%. In the case of `Cc1cccc(NS(=O)(=O)c2ccc(Cl)c(C(=O)Nc3ccccc3C)c2)c1`, the inhibition is reported as 0.421%. `CCCN(Cc1cccs1)C(=O)Nc1ccc(Br)c(C)c1` gave an inhibition of 15.9%. Compound `CC(C)Cn1c(-c2ccc(S(=O)(=O)N3CCCC3)cc2)csc1=Nc1ccccc1` has an inhibition of -10.8%. `CCOc1ccc(NC(=O)CN2CCN(CC(=O)Nc3ccc(OC)cc3OC)CC2)cc1` was tested, and the inhibition was active: 32.4%. Work on `Cc1ccc(-n2c(=O)c3c(cnn3C)n(CC(=O)Nc3cc(C)ccc3C)c2=O)cc1` yielded an inhibition of 6.58%. Compound `O=C(CCSCc1cnn(-c2ccccc2)c1-n1cccc1)NCc1ccc(Cl)cc1` has an inhibition of -5.67%. Work on `Cc1ccc(C(=O)c2cn(Cc3cccc(F)c3)c3nc(C)ccc3c2=O)cc1` yielded an inhibition of 2.77%. `COc1ccc(C(=O)NCc2ccc3c(c2)CCN3C(=O)c2cccc(C)c2)cc1OC` showed an inhibition of 5.3%. `Cc1oc2ncnc(N3CCOCC3)c2c1C(=O)NCc1ccccc1` showed an inhibition of -0.905%. In the case of `O=C(CCn1cccn1)Nc1cccc(C(F)(F)F)c1`, the inhibition is reported as 13%. Work on `COc1ccc(/C=C\c2onc(C)c2S(=O)(=O)N2CCC(C(=O)Nc3ccc(Cl)cc3)CC2)cc1` yielded an inhibition of 4.58%. With `CCOc1cc(-c2nnc(SCC(=O)NCc3ccccc3)nc2-c2ccc(OC)c(OCC)c2)ccc1OC` the inhibition was 15.8%. In the case of `CCc1ccc(NC(=O)C2CCCN(S(=O)(=O)c3ccc4c(c3)CCCN4C(C)=O)C2)cc1` (stereo not given), the inhibition is reported as 5.39%. With `Cc1ccc(-n2ncc(C(=O)N3CCCCC3)c2C2CCN(C(=O)OC(C)(C)C)CC2)cc1C` the inhibition was -5.04%. For `COc1ccc(C(=O)N2CC(=O)Nc3ccc(C)cc3C2c2ccccc2)c(OC)c1` (stereo not given), the inhibition was 16.2%. With `CCC(=O)N1CCc2cc(Br)cc(S(=O)(=O)CCC(=O)N3CCN(c4ccccc4OC)CC3)c21` the inhibition was 14.5%. With `CCOC(=O)c1ccc(N2CCN(c3ccc(F)cc3)CC2)c(NC(=O)Nc2cccc(OC)c2)c1` the inhibition was 12.9%. `COc1ccc(-c2ccnc3[nH]n(-c4ccccc4)c(=O)c23)cc1` was tested, and the inhibition was -14.4%. With `COc1ccccc1N1CCN(S(=O)(=O)c2ccc3[nH]c4c(c3c2)CCCC4)CC1` the inhibition was -21.4%. `Cc1cc2nc(N)sc2cc1C` was tested, and the inhibition was active: 34.2%. With `COc1ccc(OCc2ccc(-c3nc(C#N)c(N4CCC(C)CC4)o3)o2)cc1` the inhibition was 10.8%. With `O=c1oc(-c2ccco2)nc2ccccc12` the inhibition was active: 36.3%. In the case of `COc1ccc(-c2cc3c(=O)n(CC(=O)NCCCN4CCN(Cc5ccccc5)CC4)ncn3n2)cc1`, the inhibition is reported as active: 37.1%. `C=C(C)Cn1c(SCC(=O)Nc2cc(C)ccc2C)nc2sc3c(c2c1=O)CCCC3` was tested, and the inhibition was -17.3%. Compound `Cc1ccc(NC(=O)c2ccc3snnc3c2)cc1Cl` has an inhibition of 15.9%. Compound `CCc1ccc(S(=O)(=O)c2nnn(-c3ccc(F)cc3)c2N)cc1` has an inhibition of 8.48%. With `CN(C)S(=O)(=O)Nc1ccc(Oc2ccccc2)cc1` the inhibition was active: 34.6%. Work on `Cc1cccc(OCC(=O)NCC2(N3CCN(C)CC3)CCCCC2)c1C` yielded an inhibition of -1.95%. `CCOc1ccc(CCNC(=O)c2cn(C)c3ccc(S(=O)(=O)N4CCOCC4)cc3c2=O)cc1OCC` showed an inhibition of -3.53%. `Cc1cc(Cl)ccc1Oc1ncc(CN2CCN(c3ccccc3)CC2)s1` was tested, and the inhibition was active: 83.6%. For `Cc1ccc(-n2ncc3c(N(C)Cc4ccccc4)ncnc32)cc1`, the inhibition was 12.2%. Compound `Cc1cc(NS(=O)(=O)c2ccc(NC(=O)c3ccccc3F)cc2)nc(C)n1` has an inhibition of 17.5%. With `Cc1ccc(NS(=O)(=O)c2ccc(C)c(NC(=O)COc3ccccc3)c2)c(C)c1` the inhibition was active: 66.6%. Compound `Cc1ccccc1NC(=O)C1CCC(CNS(=O)(=O)c2ccc3c(c2)C(C)(C)C(=O)N3C)CC1` (stereo not given) has an inhibition of -4.34%. Compound `COC(=O)c1cc2c(cc1NC(=O)c1c(C)nn(-c3ccc(C)cc3)c1-n1cccc1)OCO2` has an inhibition of -6.99%. `COc1cc(NC(=O)Cn2ccn(Cc3ccccc3OC)c(=O)c2=O)cc(OC)c1` was tested, and the inhibition was -3.06%. `CCOC(=O)c1c(S(=O)(=O)N2CCCC(C(=O)N(C)Cc3ccccc3)C2)c(C)n(C)c1C` (stereo not given) showed an inhibition of -3.2%. Compound `O=C(CN1CCN(Cc2ccc(F)cc2Cl)S1(=O)=O)Nc1ccc(F)cc1` has an inhibition of 0.0041%. `Cc1ccc(C(c2sc3nc(-c4ccco4)nn3c2O)N2CCOCC2)cc1` (stereo not given) was tested, and the inhibition was 7.31%. Compound `COc1ccccc1NC(=O)CSc1nc2ccccc2c(=O)n1CCC(=O)NC1CCCCC1` has an inhibition of -8.54%. In the case of `Cc1cccc(-n2c(-c3ccco3)nc3c(cnn3-c3ccccc3C)c2=O)c1`, the inhibition is reported as -14.4%. `Cc1nn(C(=O)c2ccccc2)c(C)c1Sc1ccc(Cl)cc1` was tested, and the inhibition was 1.53%. Work on `Cc1ccc(Cn2nc(C)c(NC(=O)c3cc(-c4ccc(F)cc4)on3)c2C)cc1` yielded an inhibition of 1.09%. Compound `Cc1ccc(NC(=O)Cn2c(C)cc(C)c(C#N)c2=O)cc1` has an inhibition of 10.6%. `CCOc1ccc(NC(=O)Cn2c(=O)oc3cc(S(=O)(=O)NC4CCCC4)ccc32)cc1` showed an inhibition of 6.03%. `Cc1cccc(Cn2c(C)c(C)c3cc(C(=O)NCc4ccco4)ccc32)c1` showed an inhibition of 11.8%. Work on `COc1ccc(S(=O)(=O)NCCc2csc3nc(-c4ccc(Cl)cc4)nn23)cc1C` yielded an inhibition of 27.9%. In the case of `CS(=O)(=O)N1CCc2cc(S(=O)(=O)NCc3ccccc3Cl)ccc21`, the inhibition is reported as 27.4%. In the case of `COc1ccc2[nH]c(=O)c(CN(C(=O)c3cccc(Cl)c3)c3ccccc3OC)cc2c1`, the inhibition is reported as 8.47%. `Cn1c2ccccc2c2cnn(CC(=O)NCc3ccc(Cl)cc3)c(=O)c21` showed an inhibition of 2.71%. Work on `CC(=O)Nc1ccccc1OCc1cc(=O)n2c3c(sc2n1)CCCC3` yielded an inhibition of -0.553%. In the case of `COc1ccc(-c2nc(Cn3c(SCc4cccc(Cl)c4)nc4ccncc43)c(C)o2)cc1`, the inhibition is reported as -13%. In the case of `Cc1ccc(Sc2c(C)nn(C(=O)COc3ccccc3)c2C)cc1`, the inhibition is reported as -7.69%. In the case of `Cn1cnc(S(=O)(=O)N2CCC(C(=O)NCc3ccccc3)CC2)c1`, the inhibition is reported as 15.4%. `O=C1CS(=O)(=O)C2(C(=O)Nc3ccccc32)N1c1cccc(Cl)c1` (stereo not given) was tested, and the inhibition was 5.69%. In the case of `COc1cccc2c1cc1c(=O)n(CC(=O)N3CCN(c4ccccc4F)CC3)nc(C)n12`, the inhibition is reported as 1.26%. Work on `CCOc1ccc(NC(=O)CCCc2nc(-c3cccc(OC)c3)no2)cc1` yielded an inhibition of 17.1%. `Cc1ccc(C)c(CSc2nc3c([nH]c4ccccc43)c(=O)n2C)c1` gave an inhibition of 11.9%. `O=C(NCCCc1nc2ccccc2n1Cc1ccc(F)cc1)C1CCCCC1` was tested, and the inhibition was 2.91%. `CC(C)c1ccc2oc(-c3ccc(Cl)c(NC(=O)c4cccs4)c3)nc2c1` showed an inhibition of -7.87%. For `COc1ccc(CN2CCN(Cc3cn(C)nc3-c3ccccc3)CC2CCO)c(C)c1C` (stereo not given), the inhibition was active: 33.2%. For `Cn1nc(-c2ccc(OCC(=O)Nc3cccc(C(F)(F)F)c3)cc2)c2ccccc2c1=O`, the inhibition was -6.88%.
